# Out of some 310,000 compounds screened, about 2,200 (0.71%) showed an effect of 50% or more. Effects have a minus sign here. The list shows a part of the results.
# Biological target: human ether-à-go-go-related gene (hERG) potassium channel (human, UniProt Q12809)
# Assay: primary screen, population patch clamp on CHO cells stably expressing hERG
# Chain of human ether-à-go-go-related gene (hERG) potassium channel (Q12809 whole entry, looked up): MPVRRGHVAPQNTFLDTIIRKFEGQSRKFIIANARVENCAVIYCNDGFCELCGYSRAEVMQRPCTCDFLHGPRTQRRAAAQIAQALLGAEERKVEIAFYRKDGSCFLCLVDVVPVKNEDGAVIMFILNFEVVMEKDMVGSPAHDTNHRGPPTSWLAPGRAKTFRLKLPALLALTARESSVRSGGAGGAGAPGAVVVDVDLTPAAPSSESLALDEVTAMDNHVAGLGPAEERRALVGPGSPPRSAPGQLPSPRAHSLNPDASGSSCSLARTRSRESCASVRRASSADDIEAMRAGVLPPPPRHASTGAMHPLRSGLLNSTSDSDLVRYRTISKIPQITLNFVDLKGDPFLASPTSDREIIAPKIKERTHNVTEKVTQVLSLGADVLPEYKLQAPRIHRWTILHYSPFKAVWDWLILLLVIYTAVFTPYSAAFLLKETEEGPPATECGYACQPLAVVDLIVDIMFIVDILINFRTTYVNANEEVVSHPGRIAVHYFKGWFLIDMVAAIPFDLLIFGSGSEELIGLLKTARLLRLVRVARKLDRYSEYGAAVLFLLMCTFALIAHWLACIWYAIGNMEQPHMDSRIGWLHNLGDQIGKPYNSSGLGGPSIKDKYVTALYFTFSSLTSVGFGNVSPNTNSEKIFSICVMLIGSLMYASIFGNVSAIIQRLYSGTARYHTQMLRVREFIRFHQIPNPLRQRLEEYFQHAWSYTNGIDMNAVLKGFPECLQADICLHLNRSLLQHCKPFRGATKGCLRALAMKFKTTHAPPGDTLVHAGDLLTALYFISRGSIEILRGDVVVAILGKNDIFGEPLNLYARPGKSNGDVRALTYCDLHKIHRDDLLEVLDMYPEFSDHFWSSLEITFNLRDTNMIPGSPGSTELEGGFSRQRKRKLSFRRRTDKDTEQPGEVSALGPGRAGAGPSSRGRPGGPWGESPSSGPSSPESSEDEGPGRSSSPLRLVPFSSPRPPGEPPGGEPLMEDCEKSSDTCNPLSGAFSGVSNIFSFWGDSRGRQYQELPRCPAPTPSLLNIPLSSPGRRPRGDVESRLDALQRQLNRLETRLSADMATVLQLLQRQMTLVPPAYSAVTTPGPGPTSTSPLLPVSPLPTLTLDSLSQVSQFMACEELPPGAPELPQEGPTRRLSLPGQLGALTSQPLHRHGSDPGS
row,SMILES,"hERG current change (%, negative = inhibition) at 1uM [%]"
1,CCOc1ccccc1N(C(=O)CNC(=O)c1ccco1)C(C(=O)NC(C)(C)C)c1ccncc1 (stereo not shown),8.81
2,Cn1c(N)c(-c2nc3cccnc3n2C)sc1=S,26.6
3,COc1ccc(C(=O)N/N=C/c2sc3ccccc3c2O)cc1,8.96
4,CCCC(=O)OCCNc1cc(Sc2nccn2C)c2nonc2c1[N+](=O)[O-],2.09
5,CCSc1nnc(-c2sc3nnc(-c4ccccc4)c(-c4ccccc4)c3c2N)o1,15.4
6,CCOC(=O)/C(C#N)=N/Nc1ccc(S(=O)(=O)N2CCc3ccccc32)cc1,9.3
7,S=c1[nH]nc(-c2cc(-c3ccccc3)n[nH]2)n1/N=C/c1ccccc1,9.99
8,CC(C)NC(=O)CN(C(=O)CCC(=O)Nc1ccccn1)c1ccc(F)c(Cl)c1,7.45
9,COc1ccc2c(c1)O/C(=C\c1sccc1C)C2=O,0.193
10,COc1ccc(N2CCN(C(=O)c3ccc(NS(=O)(=O)c4ccc(F)cc4)cc3)CC2)cc1,1.5
11,CC(=O)Nc1cc(NC(C)=O)cc(C(=O)OCC(=O)N(c2ccccc2)C2CCS(=O)(=O)C2)c1 (stereo not shown),11.9
12,Cc1ccc(NC(=O)COC(=O)c2ccc3c(c2)OCCO3)cc1,9.33
13,C=CCn1c(=O)c(C(=O)Nc2ccccc2O)c(O)c2ccccc21,12.3
14,Nc1cc(=O)nc(SCC(=O)Nc2cccc3ccccc23)n1CCc1ccccc1,-1.09
15,Cc1ccc(OCC(=O)N(C)CC(=O)Nc2ccc(N3CCOCC3)cc2)cc1,14.3
16,O=C(Nc1ccc2c(c1)OCCO2)C1CC(c2ccc(F)cc2)=NO1 (stereo not shown),3.55
17,COc1ccc(CN2C(=O)[C@@H]3C(c4ccc(F)cc4)=NO[C@@H]3C2=O)cc1,9.84
18,CCC(C)(C)n1nnnc1CN1CCC(O)(c2cccc(C(F)(F)F)c2)CC1,17.1
19,CC(=O)Nc1nc(C2CC2)cc(-c2ccccc2)c1C#N,10.9
20,CCOC(=O)N1CCC(NC(=O)c2ccccc2C(=O)O)CC1,6.18
21,COC(=O)Cn1nnc(N2CCOCC2)n1,21.2
22,CCN1CCN(C(c2ccccc2OC)c2nnnn2C2CCCCC2)CC1.Cl (stereo not shown),10.1

row,SMILES,"hERG current change (%, negative = inhibition) at 1uM [%]"
1,CC(OC(=O)C1CSC2(c3ccc(F)cc3)CCC(=O)N12)C(=O)NC(N)=O (stereo not shown),13.5
2,CC(C)CN(C(=O)C1COc2ccccc2O1)c1c(N)n(CC(C)C)c(=O)[nH]c1=O (stereo not shown),1.48
3,Fc1ccc(C(c2nnnn2C2CCCC2)N(Cc2ccco2)CC2CCCO2)cc1 (stereo not shown),3.96
4,Cc1cc(Br)c(OCc2ccc(C(=O)N/N=C3\CC4CC=CC34)cc2)c(Br)c1 (stereo not shown),6.99
5,CCN(CC)CCNC(=O)Cn1cnc2sc(C)c(S(=O)(=O)N3CCN(c4ccccc4OC)CC3)c2c1=O,11.9
6,CC1=Nc2cc(C(=O)NCCCN3CCOCC3)ccc2Sc2c(C)ccc(C)c21,14.7
7,COc1cc(/C=C/C(=O)OCC(=O)Nc2cc(C)c(C)cc2[N+](=O)[O-])ccc1O,9.25
8,CC(Oc1ccc2ccccc2c1)C(=O)NNC(=S)NC(=O)c1ccco1 (stereo not shown),5.12
9,O=S(=O)(c1ccc(NC(=S)N/N=C/c2c3ccccc3cc3ccccc23)cc1)N1CCOCC1,4.28
10,CCCCn1c(N)c(N(CCOC)C(=O)c2cccc(S(=O)(=O)N(CC)c3ccccc3)c2)c(=O)[nH]c1=O,3.36
11,COc1ccccc1NC(=O)c1csc2c1CCC(C)C2 (stereo not shown),7.55
12,COc1ccccc1-c1cc2ccccc2[nH]1,13.5
13,CC(/C=N/NC(=O)c1ccco1)=C\c1ccccc1,11.8
14,COCCN(CCOC)S(=O)(=O)c1ccc(C(=O)Nc2ccc([N+](=O)[O-])cc2OC)cc1,11.1
15,O=C(NCC1CCCCC1)C1(CC2CC(c3cccc(Br)c3)=NO2)CCNCC1 (stereo not shown),1.29
16,CCOC(=O)c1ccc(NC(=O)C2=C(C)Nc3nc(CCCO)nn3C2c2cccc(C)c2)cc1 (stereo not shown),5.09
17,N#Cc1c(N)nc(N)nc1Nc1ccc(Br)cc1,12.3
18,COc1ccc(CC(=O)Nc2cccc(-c3nnc(-c4ccco4)o3)c2)cc1,5.57
19,Cc1ccc(CN=C2NC(=O)C(CC(=O)NCCc3ccccc3)S2)cc1 (stereo not shown),3.58
20,CN(C)c1ccc(C(=S)N2CCCCCC2)cc1,8.13
21,CCOC(=O)c1cc2c(ccn2C)n1Cc1ccccc1Cl,-0.512
22,CCc1ccccc1N1CCN(S(=O)(=O)c2ccc(F)c(C)c2)CC1,14.2

row,SMILES,"hERG current change (%, negative = inhibition) at 1uM [%]"
1,Cc1nc(-c2cccs2)ccc1C(=O)O,-8.08
2,COc1ccc(/C=C/C(=O)c2ccccc2)cc1COc1ccccc1F,3.82
3,CCc1nn(C(C)C(=O)NCCN2CCCCCC2)c(=O)c2cc3occc3n12 (stereo not shown),8.13
4,COc1ccc(NS(=O)(=O)c2cccc3ccccc23)cc1,10.7
5,O=C(COC(=O)Cc1ccccc1F)NNC(=O)c1ccc(Cl)cc1,9.41
6,O=C(NCc1ccco1)c1cccc(NC(=O)c2ccccc2)c1,7.19
7,COC(=O)c1nc2n(n1)C(c1ccccc1OC)C1=C(CCCC1=O)N2 (stereo not shown),4.99
8,Cc1cc(C)c(S(=O)(=O)NCC(c2ccco2)N2CCc3ccccc3C2)c(C)c1 (stereo not shown),7.63
9,CCSc1ccccc1C(=O)N1CCN(Cc2ccc3c(c2)OCO3)CC1,15.9
10,CCN(CC)C(=O)C1CCCN(c2ccc([N+](=O)[O-])cc2/C=N/NC(=O)c2cccc(O)c2)C1 (stereo not shown),6.83
11,Cc1cccc(NC(=O)CSCC(=O)NCc2ccco2)c1,3.38
12,CCCC(=O)C1=C(O)C(C(=O)OC)C(C)(C)CC1=NCCc1ccc(OC)c(OC)c1 (stereo not shown),-4.11
13,O=C(NCc1ccc(F)cc1)N[C@@H](Cc1ccccc1)C(=O)O,2
14,Cc1ccnc(NC(=O)Cn2ccc([N+](=O)[O-])n2)c1,-0.76
15,COc1cccc2cc(/C(=N/O)c3ccc(Br)cc3)oc12,8.74
16,O=C(NC1CCCCCC1)c1ccc(CS(=O)(=O)Cc2ccc(F)cc2)o1,13.3
17,NC(=O)c1cc([N+](=O)[O-])ccc1NCCN1C(=O)c2ccccc2C1=O,14.5
18,Cc1ccc(SCc2cc(=O)[nH]c(N3CCCCC3)n2)cc1,-2.22
19,CCn1cc(S(=O)(=O)NCc2ccc3c(c2)OCO3)cn1,11.1
20,Cc1[nH]c2ccc(C(=O)NCc3ccccn3)cc2c1C,17.2
21,COCc1c(C(=O)N/N=C/c2ccco2)nnn1-c1nonc1N,15.2
22,O=C(CCc1nc(-c2ccccc2F)no1)N1CCC2(CC1)OCCO2,6.8

row,SMILES,"hERG current change (%, negative = inhibition) at 1uM [%]"
1,CCC(C)NC(=O)CCSCCC(=O)NC(C)CC (stereo not shown),12.3
2,CC1CCN(c2ccc(C(=O)O)cc2N)CC1,10.8
3,CN(C)C(=O)Cn1c(=O)n(S(=O)(=O)c2ccccc2)c2ccccc21,14.3
4,COc1ccccc1NC(=O)c1coc(=O)c(Br)c1,7.33
5,CCN(CC)S(=O)(=O)c1cc(OC)c(Cl)cc1OC,4.9
6,CC1(C)CC(NC(=O)c2cccc3ccccc23)CC(C)(C)N1,12.1
7,CC1CCN(C(=O)CCNS(=O)(=O)c2ccc3c(c2)oc(=O)n3C)CC1,19.9
8,Nc1cc(=O)[nH]c(SCC(=O)Nc2ncc(C(F)(F)F)cc2Cl)n1,14.2
9,CCNC(=O)/C(=C\c1ccccc1)NC(=O)/C=C/c1ccccc1,7.3
10,CC(C)(C)NS(=O)(=O)c1cc(C(=O)O)ccc1Cl,5.17
11,Cc1ccc(-c2csc(Cc3nc(-c4cc5ccccc5oc4=O)cs3)n2)cc1,5.29
12,CCOC(=O)CSc1nnc2c3ccccc3n(CC)c2n1,6.8
13,CS(=O)(=O)c1ccc(Cl)c(NC(=O)C2CCCN(C(=O)c3ccc(Cl)cc3)C2)c1 (stereo not shown),10.1
14,CC(C)C[C@H](NC(=O)NCCc1ccc(Cl)cc1)C(=O)O,5.67
15,CCOC(=O)C1(Cc2ccccc2C)CCCN(C(=O)c2ccc(OC)o2)C1 (stereo not shown),1.78
16,O=C(N[C@@H](CO)C(=O)NCc1ccccc1)c1ccc(C(F)(F)F)cc1,13.9
17,O=C(Nc1ccn([C@H]2CC[C@@H](CO)O2)c(=O)n1)c1ccccc1,5.34
18,C=CCN(c1ccc(C(N)=O)cc1)S(C)(=O)=O,14.2
19,O=C(Nc1cccc2ncccc12)c1ccc(OCc2ccccc2)cc1,2.14
20,O=C1CC(c2cccc(Cl)c2)CC(O)=C1C=NC1CCCC1 (stereo not shown),-11
21,CC(C)CN(C(=O)COC(=O)c1ccc2ccccc2n1)C1CCS(=O)(=O)C1 (stereo not shown),11.3
22,Cc1cc(NC(=O)C(C)N2C(=O)c3ccccc3S2(=O)=O)no1 (stereo not shown),9.19
